{
  "source": "PubChem BioAssay AID588855",
  "about": "(National Center for Advancing Translational Sciences (NCATS), 2011)",
  "note": "The campaign covered roughly 410,000 compounds. About 5,000 (1.2%) were called active. The inconclusive results got no clear call from the source; some entries with a clear call stand among them for comparison. The call rests on the fitted dose curve; in most records, active means well fitted inhibition curve with a large enough effect; inconclusive means small, poorly fitted or top-dose-only effect; inactive means no such curve, though single readings can be large or run the other way. Potencies of inconclusive entries are doubtful fits and often do not repeat. Potency means the concentration at half of the fitted maximal effect; tags describe the fitted curve by direction and shape.",
  "data": [
    {"assay": "qHTS for Inhibitors of TGF-b; further: nearly all actives have a fitted effect of over 65% in size", "conditions": "HepG2 CAGA-GFP TGF-b/SMAD3 reporter, GFP fluorescence, 18 h, TGF-beta stimulated, 500 pg/mL final; series mostly up to 46.1 µM", "method_in_brief": "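HEPG2 CAGA-GFP, 1000 cells/well; 2 h settle, 37 C; cpd via pin tool; TGF-b 500 pg/mL final; 18 h, 37 C; GFP imaging ex488/em500-530; %Activity normalised to -TGF-b and +DMSO controls; CRC fit, curve class.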", "values": [
      {"smiles": "CCOC(=O)C[C@H]1c2cc(F)ccc2S(=O)(=O)N1Cc1ccc(OC)cc1", "Potency": "inconclusive: 7.94 µM [inhibitor, partial curve, poor fit]"},
      {"smiles": "O=C(NCC1COc2ccccc2O1)C1CCN(S(=O)(=O)c2ccc(Cl)cc2)CC1", "note": "(stereo unspecified)", "Potency": "inconclusive: 8.91 µM [inhibitor, partial curve, poor fit]"},
      {"smiles": "CCCCNC(=O)c1ccc2nc(CC)c(N(CCC(C)C)CCN(C)C)n2c1", "Potency": "inactive"},
      {"smiles": "Oc1ccccc1-c1nc2cnccn2c1Nc1ccc(Cl)cc1", "Potency": "active: 6.31 µM"},
      {"smiles": "C/C(=N\\NC(=O)c1nn(C)c(C)c1Br)c1cccc(NC(=O)c2ccoc2C)c1", "Potency": "inconclusive: 15.8 µM [inhibitor, single point]"},
      {"smiles": "O=C1CC(N2CCCCCC2)C(=O)N1c1ccc(F)cc1", "note": "(stereo unspecified)", "Potency": "inconclusive: 1.12 µM [inhibitor, full curve, poor fit]"},
      {"smiles": "COc1ccc(CC(=O)Nc2nc(OCC(F)(F)F)cnc2-c2ccc(Cl)cc2Cl)cc1", "Potency": "inconclusive: 22.4 µM [inhibitor, single point]"},
      {"smiles": "CC(C)c1ccccc1NC(=O)C(Cc1c[nH]c2ccccc12)NC(=O)OC(C)(C)C", "note": "(stereo unspecified)", "Potency": "inconclusive: 20 µM [inhibitor, single point]"},
      {"smiles": "Cc1ccc(NC(=O)c2ccc3c(O)c(S(=O)(=O)c4ccc(Cl)cc4)c(=O)[nH]c3c2)cc1", "Potency": "inactive"},
      {"smiles": "Nc1nc(Nc2ccccc2)sc1C(=O)c1ccccc1", "Potency": "active: 5.62 µM"},
      {"smiles": "CCc1nc2ccc(C(=O)NCc3ccc(OC)cc3)cn2c1N(C)C(=O)Cc1ccccc1", "Potency": "inactive"},
      {"smiles": "CCOc1ccc(N=c2oc3cc(O)ccc3cc2C(=O)NCC2CCCO2)cc1", "note": "(stereo unspecified)", "Potency": "inactive"},
      {"smiles": "c1ccc(CN2CCC(Nc3nc(-c4cccs4)nc4ccccc34)CC2)cc1", "Potency": "inconclusive: 35.5 µM [inhibitor, single point]"},
      {"smiles": "CCCCn1c(SCc2ccccc2C)nc2ccsc2c1=O", "Potency": "inactive"},
      {"smiles": "Cc1ccccc1Oc1nc2c(C)cccn2c(=O)c1/C=C(\\C#N)C(=O)Nc1c(C)n(C)n(-c2ccccc2)c1=O", "Potency": "inconclusive: 35.5 µM [inhibitor, partial curve, poor fit]"},
      {"smiles": "CN(C)c1ccc(NC(=O)C2C3C=CC(C3)C2C(=O)O)cc1", "note": "(stereo unspecified)", "Potency": "inconclusive: 22.4 µM [inhibitor, single point]"},
      {"smiles": "CC(C)(COC(=O)Nc1ccccc1)COC(=O)Nc1ccccc1", "Potency": "inconclusive: 12.6 µM [inhibitor, partial curve, poor fit]"},
      {"smiles": "Cc1ccc(NC(=O)C(OC(=O)c2ccc(C=O)cc2)c2ccccc2)cc1Cl", "note": "(stereo unspecified)", "Potency": "inconclusive: 22.4 µM [inhibitor, single point]"},
      {"smiles": "CC(=O)SC1CC(=O)N(c2c(C)cccc2C)C1=O", "note": "(stereo unspecified)", "Potency": "inconclusive: 28.2 µM [inhibitor, single point]"},
      {"smiles": "COc1ccc(CNC(=O)Nc2ccc3c(c2)c(=O)n(C)n3Cc2cccc(C(F)(F)F)c2)cc1", "Potency": "inactive"},
      {"smiles": "Cc1[nH]n(-c2ccccc2)c(=S)c1C=NCCCN=Cc1c(C)[nH]n(-c2ccccc2)c1=S", "Potency": "active: 0.562 µM"},
      {"smiles": "Cc1cccc(N2CCN(C(=O)Cn3c(C)c4cnn(-c5ccccc5)c(=O)c4c3C)CC2)c1C", "Potency": "inconclusive: 22.4 µM [inhibitor, single point]"},
      {"smiles": "Clc1ccccc1N=Nc1ccccn1", "Potency": "inactive"},
      {"smiles": "COC(=O)C1=C[C@@H](C(=O)OC)[C@@H]2C3=C(C(=O)[C@@]2(C)NC(=O)c2ccccc2)[C@H](C)[C@@H]2C(=O)N(c4ccccc4)C(=O)[C@@H]2[C@@H]3C1", "Potency": "inconclusive: 17.8 µM [inhibitor, partial curve, poor fit]"},
      {"smiles": "COc1ccc(Cl)cc1NC(=O)Cn1c(=O)n(-c2ccc(C)cc2)c(=O)c2ccc(C(=O)NCc3ccccc3Cl)cc21", "Potency": "inconclusive: 6.31 µM [inhibitor, single point]"},
      {"smiles": "Cc1ccc(C(=O)Nc2ccc3c4c(cccc24)CC3)cc1[N+](=O)[O-]", "Potency": "inactive"},
      {"smiles": "O=CNc1cc(-c2cccc(F)c2)cn2c(-c3ccc(F)cc3)cnc12", "Potency": "inconclusive: 14.1 µM [inhibitor, single point]"},
      {"smiles": "NC(=O)c1ccccc1NC(=O)c1ccccc1Cl", "Potency": "inactive"},
      {"smiles": "C[C@@]12C(=O)Nc3cc(Cl)ccc3C(=O)N1[C@H]1c3cc(Br)ccc3OC[C@@H]1[C@@H]2c1ccccc1", "Potency": "inconclusive: 5.01 µM [inhibitor, full curve, poor fit]"},
      {"smiles": "COc1ccc(-c2csc(NC(C)c3nc4cc(Cl)c(Cl)cc4n3CCOCCO)n2)cc1", "note": "(stereo unspecified)", "Potency": "inconclusive: 14.1 µM [inhibitor, single point]"},
      {"smiles": "O=c1cc(O)c2ccc(O)cc2o1", "Potency": "inactive"},
      {"smiles": "COc1ccccc1C(=O)NC(=O)CSc1nnnn1C", "Potency": "inactive"},
      {"smiles": "O=[N+]([O-])c1ccc2c(c1)C(O)n1nc(-c3ccc(Cl)cc3Cl)nc1S2", "note": "(stereo unspecified)", "Potency": "inactive"},
      {"smiles": "O=S(=O)(NC1CCCCC1Oc1ccccc1)c1ccc(Cl)cc1", "note": "(stereo unspecified)", "Potency": "inconclusive: 22.4 µM [inhibitor, single point]"},
      {"smiles": "O=C(CN1C(=O)S/C(=C\\c2ccccc2F)C1=O)NC1CCS(=O)(=O)C1", "note": "(stereo unspecified)", "Potency": "inactive"},
      {"smiles": "Cc1cccc(COCC(Cc2ccccc2)N2CCN(C(=O)c3cccc(Cl)c3)CCC2=O)c1", "note": "(stereo unspecified)", "Potency": "inconclusive: 20 µM [inhibitor, single point]"},
      {"smiles": "Cc1ccc(-c2noc(CN(C)C(=O)Nc3ccc(F)cc3)n2)cc1", "Potency": "inactive"},
      {"smiles": "Cc1ccc2c(c1)sc(=NC(=O)C1CC1)n2C", "Potency": "inconclusive: 35.5 µM [inhibitor, single point]"},
      {"smiles": "Cn1c(CCCNC(=O)c2ccco2)nc2ccccc21", "Potency": "inactive"},
      {"smiles": "CCOC(=O)c1ccc(Nc2c(-c3ccc(OC)cc3)nc3nc[nH]n23)cc1", "Potency": "inactive"},
      {"smiles": "C=C(C)CNC(=S)Nc1cccc2cnccc12", "Potency": "inconclusive: 12.6 µM [inhibitor, partial curve]"},
      {"smiles": "COCCn1c(SCC(=O)N2CCCc3ccccc32)nnc1-c1ccco1", "Potency": "inconclusive: 35.5 µM [inhibitor, single point]"},
      {"smiles": "COc1ccccc1C#CC1=CC(=O)C[C@H](c2ccc(F)cc2)C1", "Potency": "inconclusive: 35.5 µM [inhibitor, single point]"},
      {"smiles": "CCCCNC(=O)C1(C)CCN1C(=O)c1cc(C)n(C(C)(C)C)n1", "note": "(stereo unspecified)", "Potency": "inactive"},
      {"smiles": "C/C(=C\\C(=O)c1ccc(Br)cc1)NNC(=O)c1ccc(O)cc1", "Potency": "inconclusive: 31.6 µM [inhibitor, single point]"},
      {"smiles": "CCOc1ccc(-c2cc(C(=O)O)c3ccccc3n2)cc1", "Potency": "inactive"},
      {"smiles": "Cc1ccccc1N=Nc1c(C)[nH]n(C(N)=S)c1=O", "Potency": "inconclusive: 5.62 µM [inhibitor, single point]"},
      {"smiles": "S=C(NC1CCCCC1)N1CCN(C2CCCCC2)CC1", "Potency": "inconclusive: 20 µM [inhibitor, single point]"},
      {"smiles": "CC(=O)N1CCN(S(=O)(=O)c2ccc3c(c2)OCCO3)CC1", "Potency": "inactive"},
      {"smiles": "CN(Cc1ccc(Cl)cc1Cl)C(=O)c1cccc(S(=O)(=O)NCc2ccccc2)c1", "Potency": "inconclusive: 35.5 µM [inhibitor, single point]"},
      {"smiles": "Cc1ccc(NC(C)C(=O)N/N=C/c2ccc([N+](=O)[O-])s2)cc1", "note": "(stereo unspecified)", "Potency": "inconclusive: 35.5 µM [inhibitor, single point]"},
      {"smiles": "C=C(C)CSc1cc(C)nc2c(-c3ccccc3)c(C)nn12", "Potency": "inactive"},
      {"smiles": "COc1ccccc1NC(=O)Cn1c(C)cc(=O)c2cccc(OC)c21", "Potency": "inconclusive: 15.8 µM [inhibitor, single point]"},
      {"smiles": "CC(Oc1ccccc1)C(=O)Nc1c(C(=O)Nc2cccc(F)c2)oc2ccccc12", "note": "(stereo unspecified)", "Potency": "inactive"},
      {"smiles": "CN(C)S(=O)(=O)c1cccc(C(=O)N(Cc2ccc(F)cc2)Cc2ccco2)c1", "Potency": "inactive"},
      {"smiles": "COc1ccccc1C/C(N)=N/OC(=O)/C=C/c1ccccc1", "Potency": "inactive"},
      {"smiles": "COc1cccc(-c2nnc(SCC3CNC(=O)O3)n2-c2ccc(Cl)cc2)c1", "note": "(stereo unspecified)", "Potency": "inconclusive: 35.5 µM [inhibitor, single point]"},
      {"smiles": "CCOc1ccc2c(c1)C(=O)C(=O)N2CC1COc2ccccc2O1", "note": "(stereo unspecified)", "Potency": "inconclusive: 0.631 µM [inhibitor, full curve]"},
      {"smiles": "O=C(NCC1CC1)Nc1cccc(Cl)c1", "Potency": "inactive"},
      {"smiles": "Nc1cc2c(cc1Cl)-c1ccc([N+](=O)[O-])cc1C2=NO", "Potency": "inconclusive: 3.16 µM [inhibitor, full curve]"},
      {"smiles": "Cc1c(C(=O)C(=O)N2CC=C(c3ccccc3)CC2)c2ccccc2n1C", "Potency": "inactive"},
      {"smiles": "CCC1Oc2ccc(C)cc2N(CC(=O)NC2CCCCC2)C1=O", "note": "(stereo unspecified)", "Potency": "inactive"},
      {"smiles": "Cc1cc(Cl)ccc1C(O)c1ncc(-c2ccc(Cl)cc2)[nH]1", "note": "(stereo unspecified)", "Potency": "inconclusive: 7.94 µM [inhibitor, partial curve]"},
      {"smiles": "Nc1nc(SCC(=O)N2N=C3/C(=C/c4ccco4)CCCC3C2c2ccco2)n[nH]1", "note": "(stereo unspecified)", "Potency": "inconclusive: 0.1 µM [inhibitor, full curve, poor fit]"},
      {"smiles": "COc1ccc(C(=O)Nc2cccc3c2CCCC3)cc1OC", "Potency": "inconclusive: 35.5 µM [inhibitor, single point]"},
      {"smiles": "Cc1cc(N2CCN(C)CC2)nc2ccc(NC(=S)N3CCN(c4cccc(Cl)c4)CC3)cc12", "Potency": "inactive"},
      {"smiles": "CCOC(=O)c1ccc(-n2c(O)c(/C=N/NC(=O)C3COc4ccccc4O3)c3ccccc3c2=O)cc1", "note": "(stereo unspecified)", "Potency": "active: 8.91 µM"},
      {"smiles": "O=C(NCCc1ccc(Cl)cc1)c1cnc2sc(N3CCCC3)nn2c1=O", "Potency": "inactive"},
      {"smiles": "CCc1ccccc1NC(=O)C1CCCN(S(=O)(=O)c2ccc3[nH]c(=O)ccc3c2)C1", "note": "(stereo unspecified)", "Potency": "inconclusive: 1.26 µM [inhibitor, full curve, poor fit]"},
      {"smiles": "CSc1nc(O)c(/C=C2\\C=Nc3ccccc32)[nH]1", "Potency": "inconclusive: 6.31 µM [inhibitor, partial curve, poor fit]"},
      {"smiles": "CCOc1ccc(C(=O)n2cc(C(=O)OC)c3ccccc32)cc1", "Potency": "inconclusive: 35.5 µM [inhibitor, single point]"}
    ]}
  ]
}
